B1: BCA308.16, anti-hCAIX hIL-12 fusion protein (hIL-12p35 variant B: E60K/F61H/P63S/K150H/F188P) (other)
heavy 1: EVRLVESGGGLVKPGGSLRLSCAASGFTFSNYYMSWIRQAPEKRLELVSAINSDGGITYYLDTVKGRFTISRDNAKNSLYLQMNSLRAEDTALFYCARHRSGYFSMDYWGQGTSVTVSS[human IgG1 constant region with changes left out here]GGGGSGGGGSGGGGSIWELKKDVYVVELDWYPDAPGEMVVLTCDTPEEDGITWTLDQSSEVLGSGKTLTIQVKEFGDAGQYTCHKGGEVLSHSLLLLHKKEDGIWSTDILKDQKEPKNKTFLRCEAKNYSGRFTCWWLTTISTDLTFSVKSSRGSSDPQGVTCGAATLSAERVRGDNKEYEYSVECQEDSACPAAEESLPIEVMVDAVHKLKYENYTSSFFIRDIIKPDPPKNLQLKPLKNSRQVEVSWEYPDTWSTPHSYFSLTFCVQVQGKSKREKKDRVFTDKTSATVICRKNASISVRAQDRYYSSSWSEWASVPCS
heavy 2: EVRLVESGGGLVKPGGSLRLSCAASGFTFSNYYMSWIRQAPEKRLELVSAINSDGGITYYLDTVKGRFTISRDNAKNSLYLQMNSLRAEDTALFYCARHRSGYFSMDYWGQGTSVTVSSASTKGPSVFPLAPSSKSTSGGTAALGCLVKDYFPEPVTVSWNSGALTSGVHTFPAVLQSSGLYSLSSVVTVPSSSLGTQTYICNVNHKPSNTKVDKKV[human IgG1 Fc with changes left out here]GGGGSGGGGSGGGGSRNLPVATPDPGMFPCLHHSQNLLRAVSNMLQKARQTLKHYSCTSEEIDHEDITKDKTSTVEACLPLELTKNESCLNSRETSFITNGSCLASRKTSFMMALCLSSIYEDLKMYQVEFKTMNAKLLMDPHRQIFLDQNMLAVIDELMQALNFNSETVPQKSSLEEPDPYKTKIKLCILLHAFRIRAVTIDRVMSYLNAS
light: EIVMTQSPATLSVSPGERATLSCKASQNVVSAVAWYQQKPGQSPRLLIYSASNRYTGIPARFSGSGSGTEFTLTISSLQSEDFAAYYCQQYSNYPWTFGGGTKVEIKRTVAAPSVFIFPPSDEQLKSGTASVVCLLNNFYPREAKVQWKVDNALQSGNSQESVTEQDSKDSTYSLSSTLTLSKADYEKHKVYACEVTHQGLSSPVTKSFNRGEC
B2: BCA323.16, anti-hCAIX hIL-12 fusion protein (hIL-12p35 variant C: F188A/Y189A) (other)
heavy 1: EVRLVESGGGLVKPGGSLRLSCAASGFTFSNYYMSWIRQAPEKRLELVSAINSDGGITYYLDTVKGRFTISRDNAKNSLYLQMNSLRAEDTALFYCARHRSGYFSMDYWGQGTSVTVSS[human IgG1 constant region with changes left out here]GGGGSGGGGSGGGGSIWELKKDVYVVELDWYPDAPGEMVVLTCDTPEEDGITWTLDQSSEVLGSGKTLTIQVKEFGDAGQYTCHKGGEVLSHSLLLLHKKEDGIWSTDILKDQKEPKNKTFLRCEAKNYSGRFTCWWLTTISTDLTFSVKSSRGSSDPQGVTCGAATLSAERVRGDNKEYEYSVECQEDSACPAAEESLPIEVMVDAVHKLKYENYTSSFFIRDIIKPDPPKNLQLKPLKNSRQVEVSWEYPDTWSTPHSYFSLTFCVQVQGKSKREKKDRVFTDKTSATVICRKNASISVRAQDRYYSSSWSEWASVPCS
heavy 2: EVRLVESGGGLVKPGGSLRLSCAASGFTFSNYYMSWIRQAPEKRLELVSAINSDGGITYYLDTVKGRFTISRDNAKNSLYLQMNSLRAEDTALFYCARHRSGYFSMDYWGQGTSVTVSSASTKGPSVFPLAPSSKSTSGGTAALGCLVKDYFPEPVTVSWNSGALTSGVHTFPAVLQSSGLYSLSSVVTVPSSSLGTQTYICNVNHKPSNTKVDKKV[human IgG1 Fc with changes left out here]GGGGSGGGGSGGGGSRNLPVATPDPGMFPCLHHSQNLLRAVSNMLQKARQTLEFYPCTSEEIDHEDITKDKTSTVEACLPLELTKNESCLNSRETSFITNGSCLASRKTSFMMALCLSSIYEDLKMYQVEFKTMNAKLLMDPKRQIFLDQNMLAVIDELMQALNFNSETVPQKSSLEEPDAAKTKIKLCILLHAFRIRAVTIDRVMSYLNAS
light: EIVMTQSPATLSVSPGERATLSCKASQNVVSAVAWYQQKPGQSPRLLIYSASNRYTGIPARFSGSGSGTEFTLTISSLQSEDFAAYYCQQYSNYPWTFGGGTKVEIKRTVAAPSVFIFPPSDEQLKSGTASVVCLLNNFYPREAKVQWKVDNALQSGNSQESVTEQDSKDSTYSLSSTLTLSKADYEKHKVYACEVTHQGLSSPVTKSFNRGEC
B3: BCA324.16, anti-hCAIX hIL-12 fusion protein (hIL-12p35 variant D: F188A) (other)
heavy 1: EVRLVESGGGLVKPGGSLRLSCAASGFTFSNYYMSWIRQAPEKRLELVSAINSDGGITYYLDTVKGRFTISRDNAKNSLYLQMNSLRAEDTALFYCARHRSGYFSMDYWGQGTSVTVSS[human IgG1 constant region with changes left out here]GGGGSGGGGSGGGGSIWELKKDVYVVELDWYPDAPGEMVVLTCDTPEEDGITWTLDQSSEVLGSGKTLTIQVKEFGDAGQYTCHKGGEVLSHSLLLLHKKEDGIWSTDILKDQKEPKNKTFLRCEAKNYSGRFTCWWLTTISTDLTFSVKSSRGSSDPQGVTCGAATLSAERVRGDNKEYEYSVECQEDSACPAAEESLPIEVMVDAVHKLKYENYTSSFFIRDIIKPDPPKNLQLKPLKNSRQVEVSWEYPDTWSTPHSYFSLTFCVQVQGKSKREKKDRVFTDKTSATVICRKNASISVRAQDRYYSSSWSEWASVPCS
heavy 2: EVRLVESGGGLVKPGGSLRLSCAASGFTFSNYYMSWIRQAPEKRLELVSAINSDGGITYYLDTVKGRFTISRDNAKNSLYLQMNSLRAEDTALFYCARHRSGYFSMDYWGQGTSVTVSSASTKGPSVFPLAPSSKSTSGGTAALGCLVKDYFPEPVTVSWNSGALTSGVHTFPAVLQSSGLYSLSSVVTVPSSSLGTQTYICNVNHKPSNTKVDKKV[human IgG1 Fc with changes left out here]GGGGSGGGGSGGGGSRNLPVATPDPGMFPCLHHSQNLLRAVSNMLQKARQTLEFYPCTSEEIDHEDITKDKTSTVEACLPLELTKNESCLNSRETSFITNGSCLASRKTSFMMALCLSSIYEDLKMYQVEFKTMNAKLLMDPKRQIFLDQNMLAVIDELMQALNFNSETVPQKSSLEEPDAYKTKIKLCILLHAFRIRAVTIDRVMSYLNAS
light: EIVMTQSPATLSVSPGERATLSCKASQNVVSAVAWYQQKPGQSPRLLIYSASNRYTGIPARFSGSGSGTEFTLTISSLQSEDFAAYYCQQYSNYPWTFGGGTKVEIKRTVAAPSVFIFPPSDEQLKSGTASVVCLLNNFYPREAKVQWKVDNALQSGNSQESVTEQDSKDSTYSLSSTLTLSKADYEKHKVYACEVTHQGLSSPVTKSFNRGEC
B4: BCA325.16, anti-hCAIX hIL-12 fusion protein (hIL-12p35 variant E: Y189A) (other)
heavy 1: EVRLVESGGGLVKPGGSLRLSCAASGFTFSNYYMSWIRQAPEKRLELVSAINSDGGITYYLDTVKGRFTISRDNAKNSLYLQMNSLRAEDTALFYCARHRSGYFSMDYWGQGTSVTVSS[human IgG1 constant region with changes left out here]GGGGSGGGGSGGGGSIWELKKDVYVVELDWYPDAPGEMVVLTCDTPEEDGITWTLDQSSEVLGSGKTLTIQVKEFGDAGQYTCHKGGEVLSHSLLLLHKKEDGIWSTDILKDQKEPKNKTFLRCEAKNYSGRFTCWWLTTISTDLTFSVKSSRGSSDPQGVTCGAATLSAERVRGDNKEYEYSVECQEDSACPAAEESLPIEVMVDAVHKLKYENYTSSFFIRDIIKPDPPKNLQLKPLKNSRQVEVSWEYPDTWSTPHSYFSLTFCVQVQGKSKREKKDRVFTDKTSATVICRKNASISVRAQDRYYSSSWSEWASVPCS
heavy 2: EVRLVESGGGLVKPGGSLRLSCAASGFTFSNYYMSWIRQAPEKRLELVSAINSDGGITYYLDTVKGRFTISRDNAKNSLYLQMNSLRAEDTALFYCARHRSGYFSMDYWGQGTSVTVSSASTKGPSVFPLAPSSKSTSGGTAALGCLVKDYFPEPVTVSWNSGALTSGVHTFPAVLQSSGLYSLSSVVTVPSSSLGTQTYICNVNHKPSNTKVDKKV[human IgG1 Fc with changes left out here]GGGGSGGGGSGGGGSRNLPVATPDPGMFPCLHHSQNLLRAVSNMLQKARQTLEFYPCTSEEIDHEDITKDKTSTVEACLPLELTKNESCLNSRETSFITNGSCLASRKTSFMMALCLSSIYEDLKMYQVEFKTMNAKLLMDPKRQIFLDQNMLAVIDELMQALNFNSETVPQKSSLEEPDFAKTKIKLCILLHAFRIRAVTIDRVMSYLNAS
light: EIVMTQSPATLSVSPGERATLSCKASQNVVSAVAWYQQKPGQSPRLLIYSASNRYTGIPARFSGSGSGTEFTLTISSLQSEDFAAYYCQQYSNYPWTFGGGTKVEIKRTVAAPSVFIFPPSDEQLKSGTASVVCLLNNFYPREAKVQWKVDNALQSGNSQESVTEQDSKDSTYSLSSTLTLSKADYEKHKVYACEVTHQGLSSPVTKSFNRGEC

biological target: human IL-12 receptor (hIL-12R), heterodimer of hIL-12Rβ1 and hIL-12Rβ2 (human, UniProt P42701 24-662; Q99665 24-862); test: cell-based or functional assay

First: B1
Second: B2
The “Fold Attenuation (Over Fc-IL-12 Control); HEK-Blue IL-12 reporter assay” value of the first is lower: 1.4 fold for the first, 15.4 fold for the second.

Going from B3 to B4, the “Fold Attenuation (Over Fc-IL-12 Control); HEK-Blue IL-12 reporter assay” value rises from 1 fold to 4.5 fold.

Reference: US20240392031A1 (BICARA THERAPEUTICS, published 2024)
